Source: article PMC6724135, “The Biosynthetic Pathway of Major Avenanthramides in Oat” (Metabolites, 2019)

Assays:
AsHHT1 = biological target: T1, AsHHT1 (Avena sativa, UniProt Q7XXP3); assay: HPLC and MS of product Avn-C; conditions: with 5-hydroxyanthranilic acid, Tris-HCl pH 7.2, 30 °C
T1 construct: gene HHT1

AsHHT4 = biological target: T2, AsHHT4 (Avena sativa, UniProt A0A4Y5UJ70); assay: HPLC and MS of product Avn-C; conditions: with 5-hydroxyanthranilic acid, Tris-HCl pH 7.2, 30 °C
T2 construct: gene HHT4
T2 sequence (A0A4Y5UJ70 whole entry): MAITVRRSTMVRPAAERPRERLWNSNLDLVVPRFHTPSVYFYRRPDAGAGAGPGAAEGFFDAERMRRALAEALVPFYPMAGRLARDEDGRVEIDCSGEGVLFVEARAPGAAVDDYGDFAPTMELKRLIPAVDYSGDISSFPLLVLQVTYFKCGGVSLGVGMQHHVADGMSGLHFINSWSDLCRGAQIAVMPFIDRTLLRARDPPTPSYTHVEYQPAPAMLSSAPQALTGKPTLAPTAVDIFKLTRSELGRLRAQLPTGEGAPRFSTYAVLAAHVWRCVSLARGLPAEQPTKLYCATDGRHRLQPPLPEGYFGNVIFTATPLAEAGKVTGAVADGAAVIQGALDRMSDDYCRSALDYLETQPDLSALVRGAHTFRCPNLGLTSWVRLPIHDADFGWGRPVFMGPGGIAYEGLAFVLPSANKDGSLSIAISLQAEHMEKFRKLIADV

T1 sequence (Q7XXP3 whole entry): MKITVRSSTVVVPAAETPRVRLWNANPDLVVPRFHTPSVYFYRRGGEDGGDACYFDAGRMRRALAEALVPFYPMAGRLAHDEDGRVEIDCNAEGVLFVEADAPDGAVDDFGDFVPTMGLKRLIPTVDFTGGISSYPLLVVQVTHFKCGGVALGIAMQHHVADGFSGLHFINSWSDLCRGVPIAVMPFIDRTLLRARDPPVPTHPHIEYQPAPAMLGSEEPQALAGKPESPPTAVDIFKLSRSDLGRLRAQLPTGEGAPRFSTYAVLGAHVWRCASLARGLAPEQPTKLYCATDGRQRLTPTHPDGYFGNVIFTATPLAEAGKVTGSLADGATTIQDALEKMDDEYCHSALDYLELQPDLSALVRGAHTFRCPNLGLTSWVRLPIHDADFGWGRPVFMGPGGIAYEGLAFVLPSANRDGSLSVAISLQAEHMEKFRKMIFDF

With `CC(C)(COP(=O)(O)OP(=O)(O)OC[C@H]1O[C@@H](n2cnc3c(N)ncnc32)[C@H](O)[C@@H]1OP(=O)(O)O)[C@@H](O)C(=O)NCCC(=O)NCCSC(=O)/C=C/c1ccc(O)c(O)c1` [Caffeoyl-CoA] the “HPLC and MS of product Avn-C” value (AsHHT1) was “both enzymes could also condense 5-hydroxyanthranilic acid and caffeoyl-CoA” and the “HPLC and MS of product Avn-C” value (AsHHT4) was “both enzymes could also condense 5-hydroxyanthranilic acid and caffeoyl-CoA”.
